Measured values reported in PubChem BioAssay AID1159614 (National Center for Advancing Translational Sciences (NCATS), 2016).
The campaign covered roughly 45,000 compounds. About 65 (0.1%) were called active. The call rests on the fitted dose curve; in most records, active means well fitted activation curve with a large enough effect; inconclusive means small, poorly fitted or top-dose-only effect; inactive means no such curve, though single readings can be large or run the other way. The list shows a part of the results.

Molecular target: Galactocerebrosidase (Homo sapiens) (UniProt P54803)
Sequence of UniProt P54803 (P54803 whole entry, looked up): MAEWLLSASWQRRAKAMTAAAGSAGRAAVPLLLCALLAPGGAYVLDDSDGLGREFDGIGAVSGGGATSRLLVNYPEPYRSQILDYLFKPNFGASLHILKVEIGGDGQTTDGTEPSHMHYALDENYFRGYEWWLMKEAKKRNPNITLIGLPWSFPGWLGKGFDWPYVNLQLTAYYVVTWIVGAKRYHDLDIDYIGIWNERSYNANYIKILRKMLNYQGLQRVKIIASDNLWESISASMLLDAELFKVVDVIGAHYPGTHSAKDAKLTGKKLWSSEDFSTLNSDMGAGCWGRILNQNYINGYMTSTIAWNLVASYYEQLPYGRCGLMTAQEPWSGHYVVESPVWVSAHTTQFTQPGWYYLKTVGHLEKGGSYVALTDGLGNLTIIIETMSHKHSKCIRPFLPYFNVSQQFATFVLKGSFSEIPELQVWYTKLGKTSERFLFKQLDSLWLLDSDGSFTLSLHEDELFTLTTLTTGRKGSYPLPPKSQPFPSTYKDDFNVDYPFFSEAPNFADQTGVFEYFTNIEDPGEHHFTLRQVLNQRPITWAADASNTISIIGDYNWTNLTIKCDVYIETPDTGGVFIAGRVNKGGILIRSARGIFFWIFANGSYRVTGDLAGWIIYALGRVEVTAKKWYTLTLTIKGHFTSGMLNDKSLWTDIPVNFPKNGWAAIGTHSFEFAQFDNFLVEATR
Assay: A Novel Cell-Based Assay to Identify Small Molecules for B -Galactocerebrosidase; further: nearly all actives have a fitted effect of over 65% in size; on activation: 0% is about no effect
Details: 145M-Twi-hGALC-G270D cells (Twitcher mouse brain line with human GALC G270D), HMU-beta-Gal fluorescence, 48 h; series mostly up to 57.5 µM; activation: at the top concentration
In short: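 Fluorogenic HMU-b-Gal hydrolysis (0.1 mM final, pH 5.2 citrate-phosphate with 1 mg/mL sodium taurocholate; carbonate stop buffer) measures mutant GALC activity after compound treatment of live 145M-Twi Twitcher brain cells stably carrying human GALC-G270D, with wild-type GALC line alongside; activation sought.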
Potency means the concentration at half of the fitted maximal effect.

Row | SMILES | activation | Potency
1 | CCOc1ccc(C(=O)Nc2nnc(S(=O)(=O)N(CC)c3ccccc3C)s2)cc1 | inactive: -15.4% | 
2 | CC(=O)c1cccc(NC(=O)CCCN2C(=O)COc3ccc(C)cc32)c1 | inactive: 9.03% | 
3 | Cc1cc(C)c2c(=O)c3c(oc2c1)C(=O)N(Cc1ccc(F)cc1)C3c1cccc(O)c1 (centres undefined) | inactive: -1.31% | 
4 | CCCC(=O)NCC(c1ccc2c(c1)OCO2)N1CCOCC1 (centres undefined) | inactive: -20.3% | 
5 | O=C(COc1ccc(Cl)cc1)Nc1ccccc1C(=O)OCc1cc(=O)n2ccsc2n1 | inactive: -11.3% | 
6 | COc1ccccc1CNC(=O)CN1C(=O)CSc2c1c(C)nn2-c1ccccc1 | inactive: -8.47% | 
7 | Cc1ccc(CNC(=O)CN(c2ccc(C(C)C)cc2)S(=O)(=O)c2c(C)n[nH]c2C)cc1 | inactive: -8.48% | 
8 | COc1cccc(NC(=O)CN2CCCN(S(=O)(=O)c3ccc(Br)cc3)CC2)c1 | inactive: -17.3% | 
9 | COc1ccc(Cn2ccnc2SCC(=O)Nc2ccc(C)cc2C)cc1 | inactive: -14.5% | 
10 | CC(C)(C)CC(=O)Nc1nnc2n1CCS2 | inactive: -11.3% | 
11 | Cc1ccc(C)c(N2CCN(C(=O)Cn3ncc4c(=O)oc5ccc(C)cc5c43)CC2)c1 | inactive: -15.4% | 
12 | COc1ccc(S(=O)(=O)NCCc2nnc3ccc(SCC(=O)Nc4ccc(C(F)(F)F)cc4)nn23)cc1 | inactive: -6.26% | 
13 | C/C=C/C(=O)N(CC)c1ccccc1C | inactive: -31.2% | 
14 | CC(=O)c1ccc(NS(=O)(=O)c2cc3[nH]c(=O)c(=O)[nH]c3cc2C)cc1 | inactive: -9.82% | 
15 | COC(=O)c1ccc2c(=O)n(CCCCCC(=O)NCc3ccccc3)c(=O)[nH]c2c1 | inactive: -12.7% | 
16 | Cc1cccc(-n2c3c(cc(-c4nc(-c5ccc(Cl)cc5)cs4)c2=O)C(=O)CC(C)(C)C3)c1 | inactive: -18.5% | 
17 | CCn1cc(C2N3CC4(CC)CN2CC(CC)(C3)C4=O)c2ccccc21 (centres undefined) | inactive: -25.2% | 
18 | O=C(CN1CCSc2ccccc21)N1CCN(c2ccccc2)CC1 | inactive: -2.59% | 
19 | CCc1ccc(NC(=O)c2cc(-c3cccs3)on2)cc1 | inactive: -14% | 
20 | C=C[C@H]1CN2CC[C@H]1C[C@@H]2[C@@H](O)c1ccnc2ccc(OC)cc12 | inactive: -6.61% | 
21 | CCc1ccc(CSc2nc(-c3ccccc3OC)nc3c2Cc2c(CO)cnc(C)c2O3)cc1 | inactive: -15.9% | 
22 | O=C(C1CCCN(S(=O)(=O)c2cccc3nonc23)C1)N1CCN(c2cccc(Cl)c2)CC1 (centres undefined) | inactive: 16.5% | 
23 | CCCn1c(=N)c(C(=O)NCc2cccnc2)cc2c(=O)n3cc(C)ccc3nc21 | inactive: -2.66% | 
24 | COc1cccc(/C=C/c2nc(C#N)c(N3CCCCC3)o2)c1 | inactive: -12.5% | 
25 | O=C(c1cnc2cc(-c3ccccc3)nn2c1)c1cc([N+](=O)[O-])ccc1O | inactive: 33.6% | 

Row | SMILES | activation | Potency
26 | Cc1ccccc1Cn1nc(C)c(NC(=O)c2cc(-c3ccc(F)cc3)on2)c1C | inactive: -9.81% | 
27 | CSc1ccc(CCNC(=O)CCc2c(C)nc3c(-c4ccccc4)c(C)nn3c2C)cc1 | inactive: 4.27% | 
28 | CCOc1ccccc1CNc1ncnc2c1nc1n2CCCC1 | inactive: -3.83% | 
29 | Cc1ccc(Cn2ccn(CC(=O)Nc3ccccc3C(F)(F)F)c(=O)c2=O)cc1 | inactive: -0.388% | 
30 | CCOc1ccc(CCNC(=O)CS(=O)Cc2nc(-c3ccc(C)cc3)oc2C)cc1OCC (centres undefined) | inactive: -12.9% | 
31 | CCOC(=O)c1cnc2cc(C(F)(F)F)ccc2c1N1CCN(c2ccc(F)cc2)CC1 | inactive: -18% | 
32 | COc1ccccc1CNC(=O)C1CCCN(c2nn3cc(-c4ccc(F)cc4)nc3s2)C1 (centres undefined) | inactive: -3.73% | 
33 | COc1ccccc1CNC(=O)CCc1c(C)nc2cc(-c3ccccc3OC)nn2c1C | inactive: -6.21% | 
34 | COc1ccc(CNC(=O)Cn2ccc3cc(S(=O)(=O)N4CCCCC4)ccc32)c(OC)c1 | inactive: -38.2% | 
35 | Cc1ccc(NC(=O)CN2CCCN(Cc3ccccc3Cl)S2(=O)=O)c(C)c1 | inactive: -27% | 
36 | CCOCCc1nn2c(=O)cc(COC(=O)COc3ccccc3Cl)nc2s1 | inactive: -8.44% | 
37 | Cc1cc(Cl)ccc1NC(=O)CN1C(=O)CSc2ccc(S(=O)(=O)N(C)C)cc21 | inactive: -9.67% | 
38 | COC(=O)c1ccccc1NC(=O)CSc1nc(-c2ccccc2)cc(C(F)(F)F)n1 |  | active: 10 µM
39 | Cc1c(C(N)=O)cc([N+](=O)[O-])cc1[N+](=O)[O-] | inactive: -4.06% | 
40 | CCOc1ccccc1NC(=O)Cn1c(=O)n(CCCC(=O)NCCOC)c(=O)c2cc(OC)c(OC)cc21 | inactive: -16% | 
41 | CCOC(=O)c1c(C)[nH]c(C)c1S(=O)(=O)N1CCC(C(=O)Nc2ccc(F)cc2F)CC1 | inactive: 0.618% | 
42 | CC(=O)c1ccc(NC(=O)c2ccc3c(c2)N(Cc2cccc(Cl)c2)C(=O)c2ccccc2S3(=O)=O)cc1 | inactive: -2.43% | 
43 | CCc1ccccc1NC(=O)Cn1nnc(-c2nc(-c3ccc(C)cc3)no2)c1N | inactive: -9.06% | 
44 | CCOC(=O)c1ccccc1NC(=O)CN1C(=O)CC(c2ccco2)Sc2ccccc21 (centres undefined) | inactive: 5.85% | 
45 | Cc1ccc2c(c1)sc1nc(-c3cc4ccccc4oc3=O)cn12 | inactive: -8.29% | 
46 | CCn1cc(C(=O)N2CCN(c3ccc(F)cc3)CC2)c(=O)c2cc(S(=O)(=O)N3CCOCC3)ccc21 | inactive: -10.3% | 
47 | COc1ccc(N2CCN(c3c4c(nc5nncn35)CCC4)CC2)cc1 | inactive: -5.44% | 
48 | COc1ccc(NC(=O)C(=O)NCC(c2ccc3c(c2)OCO3)N2CCN(C)CC2)cc1 (centres undefined) | inactive: -6.85% | 
49 | Cc1oc(-c2ccc(Cl)cc2)nc1Cn1c(=O)cc(C)c2c(C)nn(-c3cccc(F)c3)c21 | inactive: -13.2% | 
